Measured values published in PubChem BioAssay AID894 (National Center for Advancing Translational Sciences (NCATS), 2007).
In all, about 150,000 compounds went through this assay and about 6,500 (4.3%) were called active. The shares of active, inactive and inconclusive entries below differ from those in the screen. Calls come from the whole dose curve; as a rule, active = well fitted inhibition curve with a large enough effect (not every such curve was filed as active); inconclusive = small, poorly fitted or top-dose-only effect, or another doubt; inactive = no such curve, though single readings can be large or run the other way. No potency is given beside an inconclusive call; the fits are too rough.

These compounds were tested against 15-hydroxyprostaglandin dehydrogenase [NAD(+)] (Homo sapiens) (UniProt P15428) (assay: qHTS Assay for Inhibitors of HPGD (15-Hydroxyprostaglandin Dehydrogenase)). Details: purified HPGD, NADH fluorescence kinetic, PGE2 substrate; activity change, negative = inhibition: active compounds read low.
In short: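 20 nM HPGD preincubated 15 min at room temperature with compound in 50 mM Tris-HCl pH 8, 0.01% Tween 20. Started with 1 mM NAD+ and 30 uM prostaglandin E2; NADH fluorescence (360/450 nm) read 5 times over 30-s intervals, last minus first.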
% is set by controls: 0 for no effect and ±100 for the full control effect; potency is the fitted concentration of half-maximal effect; tags give direction and shape of the fitted curve.

Sequence of UniProt P15428 (P15428 whole entry, looked up): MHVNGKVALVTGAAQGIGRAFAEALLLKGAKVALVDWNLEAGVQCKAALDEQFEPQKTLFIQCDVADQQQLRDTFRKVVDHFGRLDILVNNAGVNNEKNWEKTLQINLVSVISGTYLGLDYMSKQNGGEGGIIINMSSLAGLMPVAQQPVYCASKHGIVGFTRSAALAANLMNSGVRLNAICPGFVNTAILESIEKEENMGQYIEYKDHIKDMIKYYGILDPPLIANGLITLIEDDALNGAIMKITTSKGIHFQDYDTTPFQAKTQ

SMILES | activity change, negative = inhibition | Potency
COC(=O)c1ccc(C(NC(=O)OCc2ccccc2)/C(F)=C/[C@@H](C)C(=O)NCc2nc3ccccc3s2)cc1 (stereo partly drawn) | inactive: -12.7% | 
Cc1cccc(S(=O)(=O)C(C#N)c2nc3ccccc3nc2N2CC(C)OC(C)C2)c1 (stereo not drawn) | inactive: -4.76% | 
CNC(=O)c1cc2cc(OC)ccc2n1CCN(Cc1ccccc1)Cc1ccccc1 |  | inconclusive [inhibitor, partial curve]
CCOc1ccc(C2C(C(=O)c3ccco3)=C(O)C(=O)N2Cc2cccnc2)cc1OC (stereo not drawn) | inactive: -15.8% | 
COC(=O)c1sc(=S)n(-c2ccccc2OC)c1N |  | active: 14.1 µM
Nc1c(-c2ccccc2)cnn1-c1ccc(C(=O)O)cc1 | inactive: -10.7% | 
c1ccc(Cn2c(-c3ccccc3)nc3nc4ccccc4nc32)cc1 |  | inconclusive [inhibitor, partial curve]
COc1cccc(CNC(=O)c2c[nH]n3c(=O)c(Cl)c(C)nc23)c1 |  | inconclusive [inhibitor, partial curve]
CCOC(=O)c1nc2sc3c(c2c(=O)[nH]1)CCCC3 |  | inconclusive [inhibitor, partial curve]
O=C(N/N=C/c1ccc(-c2ccccc2[N+](=O)[O-])o1)[C@H]1C[C@@H]1c1ccccc1 | inactive: -12.9% | 
CCC(Sc1ccc2nnc(-c3ccc(F)cc3)n2n1)C(=O)OC (stereo not drawn) | inactive: -27.4% | 
O=C(/C=C/c1ccco1)NCCCN1CCN(CCCNC(=O)/C=C/c2ccco2)CC1 | inactive: -1.92% | 
COc1ccccc1-c1nc2cc3ccccc3cc2nc1-c1ccccc1 | inactive: -23.2% | 
Cc1ccc(-c2cc(C(=O)N/N=C/c3c[nH]c4ccccc34)[nH]n2)cc1 |  | inconclusive [inhibitor, single point]
O=c1nc(/C=C/c2ccc(-c3ccc(F)cc3)o2)cc(C(F)(F)F)[nH]1 |  | inconclusive [inhibitor, partial curve]
O=c1oc(-c2cccc(Cl)c2)nc2c1cnn2-c1ccccc1 |  | inconclusive [inhibitor, partial curve]
CCOC(=O)c1[nH]c(C)c(/C(O)=C2\C(=O)C(=O)N(CCCN3CCOCC3)C2c2cccnc2)c1C (stereo not drawn) | inactive: -6.61% | 
CC(C)c1ccc(NC(=O)C2CC(=O)N=C(N)S2)cc1 (stereo not drawn) | inactive: -0.901% | 
Cc1cccc(N(C)S(=O)(=O)c2ccc3[nH]cc(C(=O)N4CCOCC4)c(=O)c3c2)c1 |  | inconclusive [inhibitor, full curve]
Cc1ncc([N+](=O)[O-])n1CCOC(=O)c1cc(Cl)cc(Cl)c1N |  | inconclusive [inhibitor, partial curve]
CN(C)C(=O)c1ccc(-c2nnc(NCc3ccccc3)c3ccccc23)cc1 |  | active: 2.51 µM
C/C(=C/C(=O)N1CCN(C)CC1)C(=O)O | inactive: 4.4% | 
O=C(c1cn(-c2ccccc2)nc1-c1cccs1)N1CCN(c2ccccn2)CC1 |  | inconclusive [inhibitor, single point]
O=C(Nc1nc(-c2ccc(S(=O)(=O)N3CCCCCC3)cc2)cs1)c1ccccc1 |  | inconclusive [inhibitor, partial curve]
c1ccc(Nc2nc3ccccc3n3cnnc23)cc1 |  | inconclusive [inhibitor, single point]

SMILES | activity change, negative = inhibition | Potency
Cc1cccc(NC(=O)/C(=C\c2ccc([N+](=O)[O-])o2)NC(=O)c2ccc(Cl)cc2)c1 | inactive: -27.6% | 
Cc1cc(=O)n2[nH]c(COc3ccccc3)nc2n1 | inactive: 0.0702% | 
N#Cc1nc(-c2ccco2)oc1N1CCc2ccccc2C1 |  | inconclusive [inhibitor, partial curve]
Cn1c(-c2sccc2OCc2ccccc2)n[nH]c1=S |  | inconclusive [inhibitor, partial curve]
Cc1cc(C(N)=O)c2ccccc2n1 | inactive: -6.47% | 
CCOc1cc2[nH]c(=O)n(CCCCC(=O)NC3CCCCCC3)c(=O)c2cc1OCC |  | inconclusive [inhibitor, partial curve]
CC(=O)C1C(=O)c2c(cccc2[N+](=O)[O-])C1=Nc1ccccc1C (stereo not drawn) |  | inconclusive [inhibitor, partial curve, poor fit]
Cc1c(Cl)cccc1NC(=S)NCc1cccs1 |  | inconclusive [inhibitor, single point]
Cc1ccc(NC2SC(=O)N(Cc3cccc(C(=O)O)c3)C2=O)cc1 (stereo not drawn) | inactive: -5.12% | 
COC(=O)c1cc2occc2n1Cc1c(F)cccc1Cl | inactive: -27.6% | 
O=c1cc(CNc2ccc(Br)cc2)nc2sccn12 | inactive: -5.74% | 
COc1ccccc1-c1ccc(Nc2ccc(C(=O)N3CCOCC3)cc2)nn1 |  | active: 7.94 µM
COc1cccc(C(=O)Nc2c(C(N)=O)oc3ccccc23)c1 |  | inconclusive [inhibitor, single point]
CC(NC(=O)NC1CCCCC1)C(c1cccs1)N1CCN(C)CC1 (stereo not drawn) | inactive: -6.58% | 
Cc1ccc(C(=O)NC2CC(C)(C)NC(C)(C)C2)cc1C | inactive: -9.11% | 
CCN1CCN(c2cc(C)c3cc(NC(=O)Cc4ccc(OC)c(OC)c4)ccc3n2)CC1 |  | inconclusive [inhibitor, partial curve]
CCCOc1ccc2c(CC)cc(=O)oc2c1C |  | inconclusive [inhibitor, partial curve]
CC1=C(C(=O)OCCOc2ccccc2)C(c2ccc(C)o2)C2=C(CC(C)(C)CC2=O)N1 (stereo not drawn) |  | inconclusive [inhibitor, partial curve]
COC(=O)c1ccc(-c2nc3cc(N)ccc3o2)cc1 | inactive: -8.58% | 
Cc1cc(C)nc(Nc2ccc(N3CCOCC3)cc2)n1 | inactive: -9.47% | 
Cc1ccc(C)c(NC2=CC(=O)CC(C)(C)C2)c1C#N | inactive: -11% | 
CC(=O)NCCc1c(Cc2ccccc2)[nH]c2ccccc12 |  | active: 14.1 µM
CCCCCc1nc2c(C#N)c(-c3ccc(Cl)cc3)ccn2n1 |  | inconclusive [inhibitor, partial curve]
CC(C)c1ccc(N(C(=O)c2csnn2)C(C(=O)NC(C)(C)C)c2ccncc2)cc1 (stereo not drawn) | inactive: -13.4% | 
COC1(OC)N=C(N)C2(C#N)C(c3ccccc3)NC(C)=CC12C#N (stereo not drawn) |  | inconclusive [inhibitor, partial curve]

SMILES | activity change, negative = inhibition | Potency
Cn1cnnc1SCC(=O)Nc1ccc(S(=O)(=O)N2CCCC2)cc1 | inactive: -0.805% | 
CN(c1ccccc1)S(=O)(=O)c1ccc(Cl)c(C(=O)Nc2ccc(-c3nc4ccccc4[nH]3)cc2)c1 |  | inconclusive [inhibitor, partial curve, poor fit]
CCSc1nnc(-c2cc3c(s2)-c2ccccc2CC3)o1 |  | inconclusive [inhibitor, partial curve]
CCN(CC)C(=O)Cn1cnc([N+](=O)[O-])n1 | inactive: -3.28% | 
CC(C)(C)OC(=O)c1c(N)n(CCCN2CCCC2=O)c2nc3ccccc3nc12 |  | inconclusive [inhibitor, partial curve]
Cc1cc(C)cc(-n2c(C)cc(/C=N/NC(=O)CN(c3c(C)cccc3C)S(C)(=O)=O)c2C)c1 | inactive: -12.1% | 
CCCCN1C(=O)C(NC(C)=O)c2cc(Br)ccc21 (stereo not drawn) | inactive: -10% | 
Nc1c(S(=O)(=O)c2ccccc2)cnc2c(-c3ccc(F)cc3)cnn12 |  | inconclusive [inhibitor, partial curve]
CN(C)/C=N/c1cnc(C(=O)c2ccc(Cl)cc2)n1C |  | active: 15.8 µM
CC(C)c1cc(C(=O)N/N=C/c2ccco2)n[nH]1 | inactive: -16.8% | 
CCOC(=O)c1ccccc1NC(=O)c1cn(CC)c2nc(C)ccc2c1=O |  | inconclusive [inhibitor, partial curve]
Cc1nn(-c2ccccn2)c2c1C(c1ccccn1)C1=C(CCCC1=O)N2 (stereo not drawn) |  | inconclusive [inhibitor, partial curve]
COc1ccc(-c2cc(C(=O)Nc3sc4c(c3C#N)CCCC4)c3ccccc3n2)cc1OC | inactive: -22.2% | 
COc1ccc(C2OC3C(CO)OC(n4cnc5c(=O)[nH]c(N)nc54)C3O2)cc1 (stereo not drawn) |  | active: 15.8 µM
Cc1ccc(C(=O)NC(=S)Nn2cnnc2)cc1 |  | inconclusive [inhibitor, single point]
CN(C)Cc1nc2ccccc2c(=O)n1Cc1nc(-c2cc3ccccc3o2)cs1 | inactive: -11.4% | 
Cc1cc(C(=O)Nc2sc3c(c2C#N)CCCCC3)cs1 |  | inconclusive [inhibitor, partial curve]
COc1ccc(CCNC(=O)Cc2cccs2)cc1 |  | active: 35.5 µM
CCC1=NN=C(c2ccc(F)cc2)C(c2c[nH]c3ccccc23)N1O (stereo not drawn) | inactive: -11.2% | 
CCCn1c2c(c(O)c(C(=O)Nc3ccc(OCC)cc3)c1=O)CCCC2 |  | inconclusive [inhibitor, single point]
Cc1ccc(-c2nc3sc4c(c3c(=O)n2N)CC(C)(C)OC4)cc1 |  | inconclusive [inhibitor, single point]
S=c1[nH]nc(-c2ccc3ccccc3n2)n1-c1ccc(Cl)cc1 |  | active: 10 µM
O=C(c1cccc(F)c1)N1CCC2(CC1)CN(c1ccc(-c3ccccc3)cc1)C2 |  | inconclusive [inhibitor, single point]
